In this test the test system is NCI-H322M lung. The experiment in a line: NCI anticancer screen, dose series, 48 h.

Several values for one entry are separate records, joined by “and”; a condition that tells them apart may be missing. Identical values can stand only once.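 In this assay, cells in 96-well plates receive the compound at five concentrations for 48 hours. Endpoints are linearly interpolated between the surrounding concentrations. Abbreviation: GI50, concentration required for 50% inhibition of growth. TGI denotes the concentration required for complete inhibition of growth.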 Peptide text beside a SMILES is read from it.

For `CCN(CC)CCCC(CO)Nc1ccnc2cc(Cl)ccc12` (stereo unspecified), the GI50 is 43.9 µM and 65.4 µM; the TGI was above 100 µM.

Turning to `O=C(/C=C/c1cc2ccccc2[nH]c1=O)c1ccc(Cl)cc1`, the GI50 was 49.7 µM and the TGI was above 92.4 µM.

For `O=C1C(Cl)=C(Nc2cccc(O)c2)C(=O)N1CCc1ccccc1`, the GI50 is 17.9 µM and the TGI amounted to 37.5 µM.

The compound `CCC1CC(C)C(O)/C=C/C=C/CC(C)OC(=O)CC(O)C(OC)C1OC1OC(C)CC(O)(C(C)=O)C1O` (stereo unspecified) displayed a TGI above 100 µM.

On to `COc1ccc(-c2c(-c3cc(OC)c(OC)c(OC)c3)nc3sc(C4CC4)nn23)cc1OC`, for which the GI50 was 13.5 µM and the TGI was above 100 µM.

The compound `COc1nc(NC2OC(COC(C)=O)C(OC(C)=O)C(OC(C)=O)C2OC(C)=O)c2c(OC(C)=O)c(C)c(=O)oc2n1` (stereo unspecified) yielded a TGI above 100 µM.

`Nc1nc2[nH]c(=O)cnc2c(=O)[nH]1` displayed a TGI above 125 µM.

In turn, `CCCCc1c2c(nc3c1CCCC3=O)C(=O)CCC2` displayed a TGI above 100 µM.

For the compound `CC1NS(=O)(=O)N(C)C1=O` (stereo unspecified), the TGI was above 100 µM.

`O=[N+]([O-])c1ccc2[nH]c3c(-c4ccccc4)nccc3c2c1` had a TGI of 71.9 µM.

Consider `O=C1C=CC(=O)c2c(O)ccc(O)c21`, for which the TGI was determined as 16.3 µM.

Regarding `C=CCn1c(SCC(=O)Nc2ccc(C(=O)/C=C/c3cc(OC)c(OC)c(OC)c3)cc2)nnc1-c1ccc(Cl)cc1`, the GI50 is 4.89 µM and the TGI stood at 71.2 µM.

The compound `CCNCCCCNCCCCNCCCCNCCCCNCC` gave a TGI above 100 µM.

`C(=N\c1nc2cc3sc(/N=C/c4cccs4)nc3cc2s1)/c1cccs1` had a TGI above 100 µM.

Take `O=C(C=P(c1ccccc1)(c1ccccc1)c1ccccc1)c1ccc(-c2cccc([N+](=O)[O-])c2)cc1`: the TGI stood at 64.1 µM.

Compound `O=C1c2ccccc2-c2ccccc2C(=O)C1(Br)Br` registered a TGI of 31.7 µM.

On to `CN(/N=C(\C(=O)O)c1ccccc1)C1=NCCCCN1`, for which the TGI was above 100 µM.

Take `Nc1n[n+](=O)c2ccccc2n1O`: the TGI was above 100 µM.

`Brc1ccc(SCN(CSc2ccc(Br)cc2)Cc2ccccc2)cc1`: the GI50 is 4.34 µM and the TGI was 18.4 µM.

For the compound `C=C1CC2(OC1=O)C(=O)N(C)c1ccc(I)cc12` (stereo unspecified), the GI50 was 11.3 µM and the TGI worked out at 24 µM.

Take `O=c1c2c([nH]c3ccccc13)CCCC2`: the GI50 is above 100 µM and the TGI was above 100 µM.

Turning to `CC(C)=CCCC(C)[C@H]1CC(O)C2(C)C3=CCC4C(C)(C)[C@@H](O)CC[C@]4(C)C3=CC[C@]12C` (stereo partly specified), the TGI stood at 83.5 µM.

`C=CCc1cc(OC)c2c(c1)C(OC(C)=O)CC(c1ccc(OC)c(OC)c1)O2` (stereo unspecified) showed a TGI above 100 µM.

Compound `CC1=NCC[N+]1(CCc1ccccc1)Cc1ccccc1` (stereo unspecified) came in with a TGI above 100 µM.

`C[n+]1cn(C2=C([O-])c3ccccc3C(=O)/C2=N\S(=O)(=O)c2ccccc2)c2ccccc21` showed a TGI above 100 µM.

The compound `C=C1C(=O)O[C@@H]2O[C@@]3(C)CC[C@H]4[C@H](C)CC[C@@H]1[C@@]24O3` registered a TGI above 100 µM.

As to `COc1cc(CN[C@H]2CCc3cc(OC)c(OC)c(OC)c3-c3ccc(SC)c(=O)cc32)cc(OC)c1`, the GI50 is below 0.01 µM and the TGI was above 100 µM.

Turning to `CC1=C(C(=O)OCc2ccncc2)C(C2=C(C)SCCS2)C(C(=O)OCc2ccncc2)=C(C)N1`, the TGI was above 100 µM.

`COc1ccc(C(=C[N+](=O)[O-])c2ccc(OC)cc2)cc1` gave a TGI above 82.6 µM.

Compound `CC(C)/C(Cl)=N\OC(=O)Nc1ccc(F)cc1` returned a TGI of 24.3 µM.

In the case of `C1=C/COCc2cc(ccc2OCCN2CCCC2)Nc2nccc(n2)-c2cccc(c2)COC/1`, the GI50 was 0.578 µM and 0.957 µM; the TGI is 4.95 µM and 5.61 µM.

In turn, `Cn1c2c([N+](=O)[O-])cccc2c(=O)c2c(O)cc3c(c21)C=CC(C)(C)O3` showed a TGI above 100 µM.

With `C/C(=N\NC(=S)Nc1ccccc1)c1nc2ncccc2[nH]1`, the TGI is above 100 µM.

Compound `C=CCC1OC(=O)CCNC(=O)[C@H](C)N(C)C(=O)[C@H](C(C)C)N(C)C(=O)[C@H](C(C)CC)NC(=O)[C@@H]2CCCN2C1=O` (stereo partly specified) (HELM PEPTIDE1{[CCC(C)[C@H](N[*:1])C(=O)[*:2]].[meV].[meA].[bAla].[C=CCC(O[*:1])C(=O)[*:2]].P}$PEPTIDE1,PEPTIDE1,1:R1-6:R2$$$V2.0) showed a TGI above 100 µM.

For the compound `COc1cccc2c1C(=O)c1c(O)c3c(c(O)c1C2=O)CC(O)(/C(C)=N/NC(=O)CCCCC(=O)N/N=C(\C)C1(O)Cc2c(O)c4c(c(O)c2C(OC2CC(N)C(O)C(C)O2)C1)C(=O)c1c(OC)cccc1C4=O)CC3OC1CC(N)C(O)C(C)O1` (stereo unspecified), the GI50 is 1.01 µM and the TGI was above 33.2 µM.

`O=C1c2ccccc2C(=O)c2c1c(=O)c(=O)c1ccccc1c(=O)n2Cc1ccccc1`: the GI50 is 67.7 µM and the TGI was above 100 µM.

`Oc1c(CN2CCOCC2)ccc(CN2CCOCC2)c1O`: the TGI is above 100 µM.

Consider `COC(=O)[C@@H](C)C[C@H](Cc1ccccc1)NC(=O)c1cccc([C@@H](C[C@H](C(C)C)N(C)C(=O)[C@@H](NC(=O)[C@H]2CCCCN2C)C2CC2)OC(C)=O)n1`, for which the TGI was 33.3 µM and > 100 µM.

For the compound `Fc1c(F)c(F)c2c(c1F)CSc1nc3ccccc3n1-2`, the TGI is above 100 µM.

In the case of `CCN1C(=O)N(C)C(O)c2c1nc1ccccn1c2=O` (stereo unspecified), the TGI turned out to be 88.3 µM.

`Cc1cccc(C(C)(C)C)c1NC(=O)CCl`: the TGI is above 100 µM.

`COc1cc(C)c2c(c1C=O)Oc1c(c(C)c(O)c3c1C(O)OC3=O)OC2=O` (stereo unspecified) registered a TGI above 100 µM.

In turn, `Cc1ccc(NC(=O)/C(CC2N=c3c(ccc4c(O)c5ccccc5c(O)c34)=NC2O)=N/NC(C)(C)C)cc1` (stereo unspecified) came in with a TGI of 28.1 µM.

The compound `COc1ccc(Nc2nn3c(=O)c4c(C)c(C)sc4nc3s2)cc1` registered a TGI above 100 µM.

Consider `O=C(Nc1ccc(-n2cc(-c3ccncc3)c(-c3ccc(O)c(Cl)c3)n2)cc1)c1cc(C(F)(F)F)cc(C(F)(F)F)c1`, for which the GI50 was 15.8 µM and the TGI is above 25 µM.

Consider `COc1cc(/C=C/C(=O)Nc2ccc3c(c2)/C(=C\c2cccn2C)C(=O)N3)cc(OC)c1OC`, for which the GI50 is 6.79 µM and the TGI is above 100 µM.

Consider `CCCCC(=O)OC[n+]1cccc(-c2c(COC(=O)NC(C)C)c(COC(=O)NC(C)C)c3n2CCC3)c1`, for which the TGI was above 100 µM.

`CO[C@@H]1C[C@H]2[C@@H]3CC[C@H]([C@H](C)CO)[C@@]3(C)CC[C@@H]2[C@@]2(C)CC[C@H]3C[C@]312`: the TGI is above 100 µM.

`COc1ccc(C2/C(=C(\O)c3ccccc3)C(=O)C(O)(CC(=O)c3ccccc3)N2c2ccc(OC)cc2)cc1` (stereo unspecified): the TGI was above 78.8 µM.

In turn, `CC(C)N(C(=O)C12C3C4C1C1C2C3C41C(=O)O)C(C)C` (stereo unspecified) came in with a TGI above 100 µM.

Take `COc1ccc(C23OCC(Cc4cc(OC)c(OC)cc42)C3COC(C)=O)cc1OC` (stereo unspecified): the TGI was above 100 µM.

Take `O=C(NC(=S)Nc1ccccn1)c1ccccc1`: the GI50 was above 100 µM and the TGI was above 100 µM.

`CCN1C(=O)C(=C/C=C/c2ccc(OC)cc2)C(=O)N(CC)C1=S` gave a TGI above 100 µM.

In the case of `O=C1NC2c3c(I)sc(I)c3/C(=N\O)C2O1` (stereo unspecified), the TGI is above 100 µM.

The compound `COC(=O)[C@]12CC[C@H]3CN(C(=O)OCc4ccccc4)[C@H]([C@H]31)[C@H](c1ccco1)N2` showed a TGI above 100 µM.

The compound `N#CC[C@@H](O)COc1ccccc1` returned a TGI above 100 µM.

Regarding `CC1(C)CCC2(CC1)N[C@@H](C(=O)N[C@@H]1CC[C@@H](C(N)=O)OC1)[C@H](c1ccnc(Cl)c1F)[C@]21C(=O)Nc2cc(Cl)ccc21`, the GI50 was 3.79 µM and the TGI was 16 µM.

For the compound `Cc1cc(NS(=O)(=O)c2ccc(Nc3c4ccccc4nc4c(C(=O)Nc5ccc(S(N)(=O)=O)cc5)cccc34)cc2)no1`, the TGI worked out at 65.4 µM.

For the compound `CCC1=C(C)C(=O)N/C1=C\c1[nH]c(C)c([C@H](C)CCN)c1C`, the TGI was 27.9 µM.

Turning to `CCOC(=O)C1C(c2ccccc2)=C(c2ccccc2)C(c2ccccc2)=C1c1ccccc1`, the TGI is above 100 µM.

In the case of `N#Cc1c(-c2ccc([N+](=O)[O-])cc2)cc(-c2ccc(Nc3ccnc4cc(C(F)(F)F)ccc34)cc2)[nH]c1=O`, the TGI was above 100 µM.

For the compound `O=c1[nH][nH]c(=O)n1Cc1cccc(Cn2c(=O)[nH][nH]c2=O)c1`, the TGI was above 100 µM.

`CCc1c(-c2ccc(OC)cc2)c(=O)oc2cc(O)ccc12` displayed a TGI above 100 µM.

In the case of `O=[N+]([O-])c1ccc(C2N3CCCCC3[C@H]3CCCCN23)cc1` (stereo partly specified), the TGI is above 100 µM.

On to `O=C(ON=c1c2ccccc2ccc2ccccc12)c1ccccc1`, for which the TGI was 76.9 µM.

`CCCOP1(=O)C=C(O)C(Cl)=C(C)C1` (stereo unspecified) displayed a TGI above 100 µM.

Regarding `CCn1c2ccccc2c2cc(/C=C(/C#N)C(N)=S)ccc21`, the GI50 was 24.5 µM and the TGI was above 82.4 µM.

Take `Cn1c(=O)n(CCCO)c(=O)c2c1nc(Oc1cccc(OC(F)(F)F)c1)n2Cc1ccc(Cl)cc1`: the GI50 is 15 µM and the TGI was 30.6 µM.

In the case of `CC1(F)C=CC(=O)C=C1`, the TGI was above 100 µM.

`CC(=O)Oc1ccc2[nH]c3c(C)c4cccc-4ccc3c2c1` had a TGI of 5.39 µM.

In turn, `CCN(CC)CCn1ncc2c3c(=O)c4cccnc4n(CCN(CC)CC)c3ccc21` yielded a TGI above 10 µM.

In the case of `O=C1O[C@@H](c2ccccc2)C[C@H]1CN1CCOCC1`, the TGI was above 100 µM.

In the case of `Cc1nc2c(n1CC(C)C)C(=O)c1ccccc1C2=O`, the TGI was above 100 µM.

Compound `COc1cccc(/C=C/c2ccc(S(N)(=O)=O)cc2)c1` registered a TGI above 100 µM.

Regarding `O=C1C=CC(=O)c2c(O)c(N3CCN(c4ccccn4)CC3)c(Cl)c(O)c21`, the TGI was found to be 6.23 µM.

In the case of `CN(C)c1[se]nc2c1c(=O)n(C)c(=O)n2C`, the TGI was above 100 µM.

For the compound `CCOC(=O)/C=C/C1=C(c2ccsc2)c2ccc(OC)cc2CC1`, the GI50 is 7.31 µM and the TGI was above 100 µM.

`COC(=O)[C@](NC(=O)OCc1ccccc1)([C@@H](C)S(=O)c1ccc(C)cc1)C(F)(F)F` (stereo partly specified) returned a TGI above 100 µM.

`C[C@]1(O)CC[C@H]2[C@@H]3CCc4cc(O)ccc4[C@H]3CC[C@@]21C` displayed a TGI of 17.4 µM.

For `COc1ccc2c(c1)oc1c(C)c3c(c(C)c12)C(=O)N(N)C3=O`, the GI50 is above 100 µM and the TGI is above 100 µM.

The compound `Cc1c(NC(=O)/C(=N/NC(=S)N=N)C2C(=O)CC(C)(C)CC2=O)c(O)c2ccccc2c1O` yielded a TGI of 54.1 µM.

Values taken from PubChem BioAssay (NCI).
